# Source: PubChem BioAssay AID504333 (National Center for Advancing Translational Sciences (NCATS), 2011)
# The whole screen tested about 360,000 compounds, of which about 16,000 (4.4%) were called active. This list was built around the results that the source calls inconclusive (neither active nor inactive); the mix of calls is not that of the screen. Calls follow the shape of the dose curve; as a rule, active = well fitted inhibition curve with a large enough effect; inconclusive = small, poorly fitted or top-dose-only effect; inactive = no such curve, though single readings can be large or run the other way. Potencies of inconclusive entries are doubtful fits and often do not repeat.
# Target: Bromodomain adjacent to zinc finger domain protein 2B (Homo sapiens) (UniProt Q9UIF8)
# UniProt Q9UIF8, sequence (Q9UIF8 whole entry, looked up, the tested form may be a part): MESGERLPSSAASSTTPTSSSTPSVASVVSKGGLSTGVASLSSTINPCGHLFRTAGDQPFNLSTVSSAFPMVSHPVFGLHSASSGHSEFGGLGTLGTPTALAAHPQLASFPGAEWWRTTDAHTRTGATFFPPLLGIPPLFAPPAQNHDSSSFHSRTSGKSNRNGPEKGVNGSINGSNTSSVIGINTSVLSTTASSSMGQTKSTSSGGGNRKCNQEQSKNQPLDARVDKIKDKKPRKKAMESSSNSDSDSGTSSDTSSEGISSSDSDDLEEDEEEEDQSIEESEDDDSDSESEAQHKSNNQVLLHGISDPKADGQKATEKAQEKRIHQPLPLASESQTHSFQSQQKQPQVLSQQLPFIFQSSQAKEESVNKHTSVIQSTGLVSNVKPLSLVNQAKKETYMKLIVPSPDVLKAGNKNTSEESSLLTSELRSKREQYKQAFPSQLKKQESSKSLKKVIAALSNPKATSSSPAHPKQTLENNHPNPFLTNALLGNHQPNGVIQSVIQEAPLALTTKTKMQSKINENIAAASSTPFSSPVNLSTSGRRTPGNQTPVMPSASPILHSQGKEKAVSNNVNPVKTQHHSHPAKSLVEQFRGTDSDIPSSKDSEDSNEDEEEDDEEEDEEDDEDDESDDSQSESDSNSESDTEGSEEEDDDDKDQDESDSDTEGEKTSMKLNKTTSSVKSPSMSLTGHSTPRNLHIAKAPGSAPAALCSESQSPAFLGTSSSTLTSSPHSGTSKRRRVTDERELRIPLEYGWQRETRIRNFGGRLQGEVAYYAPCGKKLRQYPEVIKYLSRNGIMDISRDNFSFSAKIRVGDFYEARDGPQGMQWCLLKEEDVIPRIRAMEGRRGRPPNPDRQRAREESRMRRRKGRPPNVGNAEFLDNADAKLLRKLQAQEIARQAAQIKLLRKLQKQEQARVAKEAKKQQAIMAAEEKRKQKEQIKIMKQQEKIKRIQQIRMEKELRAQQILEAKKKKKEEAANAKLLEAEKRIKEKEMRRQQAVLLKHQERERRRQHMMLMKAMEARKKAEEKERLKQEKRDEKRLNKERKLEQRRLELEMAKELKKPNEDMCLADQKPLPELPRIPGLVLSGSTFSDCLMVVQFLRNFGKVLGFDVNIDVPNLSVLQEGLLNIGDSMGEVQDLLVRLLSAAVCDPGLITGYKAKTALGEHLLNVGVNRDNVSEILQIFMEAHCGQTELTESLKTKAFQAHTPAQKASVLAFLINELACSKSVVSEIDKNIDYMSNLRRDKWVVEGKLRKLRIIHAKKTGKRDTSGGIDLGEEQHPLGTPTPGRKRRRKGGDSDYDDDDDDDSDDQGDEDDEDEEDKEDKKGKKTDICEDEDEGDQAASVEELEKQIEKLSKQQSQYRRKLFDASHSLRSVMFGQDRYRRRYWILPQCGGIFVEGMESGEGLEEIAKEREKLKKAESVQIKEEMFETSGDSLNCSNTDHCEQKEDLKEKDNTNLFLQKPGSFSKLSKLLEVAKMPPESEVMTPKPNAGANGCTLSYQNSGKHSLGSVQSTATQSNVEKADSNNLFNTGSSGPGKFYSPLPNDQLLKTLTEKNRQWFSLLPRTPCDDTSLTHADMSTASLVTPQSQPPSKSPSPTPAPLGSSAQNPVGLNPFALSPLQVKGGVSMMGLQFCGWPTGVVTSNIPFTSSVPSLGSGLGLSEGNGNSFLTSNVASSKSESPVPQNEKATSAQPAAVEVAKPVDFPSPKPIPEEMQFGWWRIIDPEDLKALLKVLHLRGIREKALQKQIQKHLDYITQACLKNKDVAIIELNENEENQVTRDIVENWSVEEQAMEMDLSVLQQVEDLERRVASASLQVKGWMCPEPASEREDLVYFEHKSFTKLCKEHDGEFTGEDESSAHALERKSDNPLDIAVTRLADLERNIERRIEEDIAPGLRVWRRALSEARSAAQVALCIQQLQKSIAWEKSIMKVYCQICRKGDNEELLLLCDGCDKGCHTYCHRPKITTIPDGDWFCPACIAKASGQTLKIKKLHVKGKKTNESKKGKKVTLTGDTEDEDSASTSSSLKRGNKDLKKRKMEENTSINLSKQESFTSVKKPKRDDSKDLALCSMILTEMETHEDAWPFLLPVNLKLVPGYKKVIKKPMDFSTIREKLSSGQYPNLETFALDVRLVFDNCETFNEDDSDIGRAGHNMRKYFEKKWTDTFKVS
# Assay: qHTS Assay for Inhibitors of BAZ2B; also: nearly all actives have a fitted effect of over 60% in size
# Conditions: AlphaScreen BAZ2B-H3K14Ac peptide displacement; activity change, negative = inhibition: at 114 µM (top of the series) unless noted
# Method in brief: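 BAZ2B 50 nM plus b-H3(5-23)K14Ac 50 nM, PBS pH 7.4/0.01% Tween-20, 30 min RT; compound added (max 110 uM), 30 min RT; streptavidin donor/Ni-chelate acceptor beads 10 ug/mL final, 20 min dark; AlphaScreen read.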
# % is scaled to controls: 0 for no effect and ±100 for the full control effect; potency is read from the fitted curve at half-maximal effect; tags tell the direction and shape of the fitted curve.
SMILES,Potency,"activity change, negative = inhibition"
Cc1cc2nc(N3C(=O)CNC3=S)sc2cc1C,active: 44.7 µM,–
CCOC(=O)Cc1ccc(NC(=O)NC(C)c2c(-n3cccc3)sc(C)c2C)cc1 (centres undefined),"inconclusive: 56.2 µM [inhibitor, partial curve]",–
COc1ccc(N=C2SC(C(=O)N3CCN(c4ccc([N+](=O)[O-])cc4)CC3)CC(=O)N2C)cc1 (centres undefined),"inconclusive: 89.1 µM [inhibitor, single point]",–
O=C(CCC1CCCC1)N1CCN(C(=O)COc2ccccc2)CC1,–,inactive: 8.62%
O=C(Nc1ccc(N2CCCC2)c(Cl)c1)c1ccco1,"inconclusive: 89.1 µM [inhibitor, single point]",–
COc1ccc(NC(=O)CN(C)S(=O)(=O)c2ccc3[nH]c4c(c3c2)CCCC4)cc1OC,"inconclusive: 39.8 µM [inhibitor, partial curve]",–
Oc1ccccc1/C=N/n1c(-c2ccccc2)n[nH]c1=S,"inconclusive: 35.5 µM [inhibitor, full curve]",–
NC(=O)c1cc([N+](=O)[O-])ccc1NCc1cccc2ccccc12,"inconclusive: 39.8 µM [inhibitor, full curve, poor fit]",–
COc1ccc(N2CCN(C(=O)CSc3ccccc3)CC2)cc1,active: 79.4 µM,–
CCOc1cc(/C=C2\C(=O)ON=C2c2ccccc2)cc(Br)c1O,active: 28.2 µM,–
O=S(=O)(Cc1ccccc1)N(O)c1ccccc1,"inconclusive: 100 µM [inhibitor, single point]",–
Cc1cc(C)nc(NC(=O)c2ccc(Br)s2)n1,–,inactive: -24.4%
COc1ccc(OC)c(C(=O)NC(CC(N)=O)c2ccc(NCC3CC3)c([N+](=O)[O-])c2)c1 (centres undefined),"inconclusive: 79.4 µM [inhibitor, single point]",–
CC1CCN(c2oc(-c3ccccc3F)nc2C#N)CC1,active: 14.1 µM,–
CCOC(=O)c1cc(-c2ccc(/C=N\n3cnnc3)o2)ccc1Cl,–,inactive: -5.88%
C/C(=N\Nc1nc2c(s1)CCCC2)c1ccccc1,active: 44.7 µM,–
Cc1sc(N)c(C(=O)c2ccccc2Cl)c1C,active: 44.7 µM,–
CC1(OC(=O)C2CCCC2)C(=O)C=C2C=C(c3ccsc3)N(C3CC3)C=C2C1=O (centres undefined),"inconclusive: 79.4 µM [inhibitor, single point]",–
CCCN1CCN(c2ncnc3sc(C(=O)Nc4ccc(N(CC)CC)cc4C)c(C)c23)CC1,active: 28.2 µM,–
CC(C)C[C@H](NC(=O)c1nc[nH]c1C(=O)N1CCN(C(=O)OC(C)(C)C)CC1)C(=O)OC(C)(C)C,"inconclusive: 70.8 µM [inhibitor, single point]",–
CCOC(=O)c1c(C)[nH]c(N=Nc2cccc(OC)c2)c1C,active: 22.4 µM,–
CCCSc1ccc([C@@H]2[C@@H]3C(=O)N(C)C(=O)[C@@H]3[C@]3(C(=O)OC)CCCN23)cc1OC,"inconclusive: 89.1 µM [inhibitor, single point]",–

SMILES,Potency,"activity change, negative = inhibition"
C/C=C\C=C/C(=O)Nc1cccc(C2=NOC3(C2)C[C@@H](C(N)=O)N(C(=O)[C@H]2CCC(=O)N2)C3)c1 (some centres undefined),–,inactive: 6.71%
Cc1c(C(c2cccs2)c2c(C)n(C)n(-c3ccccc3)c2=O)c(=O)n(-c2ccccc2)n1C,"inconclusive: 89.1 µM [inhibitor, single point]",–
COc1cccc(-c2csc(N3CCN(C(=S)Nc4ccccc4C)CC3)n2)c1,"inconclusive: 79.4 µM [inhibitor, single point]",–
N#C/C(=C\c1ccc(-c2ccc(C(=O)O)cc2)o1)C(=O)NCC1CCCO1 (centres undefined),"inconclusive: 89.1 µM [inhibitor, single point]",–
CCCn1c(N2CCN(CC(=O)c3c(C)n(C)c4ccc(OC)cc34)CC2)nc2c1c(=O)[nH]c(=O)n2C,"inconclusive: 89.1 µM [inhibitor, single point]",–
Cc1ccc(S(=O)(=O)NC(C)(C)CSc2ccccn2)cc1,"inconclusive: 89.1 µM [inhibitor, single point]",–
COc1ccc(Nc2nc(-c3cccs3)cs2)c(OC)c1,active: 31.6 µM,–
COc1cccc(-c2nn(-c3ccccc3)cc2/C=C(\C#N)C(=O)NCCCn2ccnc2)c1,active: 50.1 µM,–
Cc1ccc(-n2c(N)c(C(=O)NCc3ccco3)sc2=S)cc1,"inconclusive: 44.7 µM [inhibitor, partial curve]",–
NC(=O)NC(=O)C(Nc1ccc(N2CCCCC2)cc1)c1ccccc1 (centres undefined),"inconclusive: 44.7 µM [inhibitor, partial curve]",–
O=C(NCc1ccco1)c1ccc2c(c1)N(Cc1ccc(F)cc1)C(=O)c1ccccc1S2=O (centres undefined),"inconclusive: 22.4 µM [inhibitor, full curve]",–
CCN(c1ccccc1)S(=O)(=O)c1cc(C(=O)NCc2ccco2)ccc1C,"inconclusive: 79.4 µM [inhibitor, single point]",–
O=C(Nc1ccc2c(c1)CCC2)Nc1ccc(F)cc1F,–,inactive: 2.05%
Cc1ccc(C(=O)N2CCN(c3ccc(NC(=O)c4cccs4)cc3)CC2)cc1,"inconclusive: 25.1 µM [inhibitor, full curve]",–
CC(C)(C)Sc1ccc2nc3c(n2c1)CCCC3,"inconclusive: 50.1 µM [inhibitor, partial curve]",–
CC(C)n1cnnc1SCC(=O)Nc1ccc(N2CCCCC2)cc1,"inconclusive: 89.1 µM [inhibitor, single point]",–
Cc1ccc(-c2cc(C(=O)NN)n[nH]2)o1,"inconclusive: 79.4 µM [inhibitor, single point]",–
Cc1ccc2[nH]c3c(c2c1)CN(C(=O)CN1CCN(c2ccccn2)CC1)CC3,active: 50.1 µM,–
Clc1cccc(N2CCN(c3nnnn3-c3ccccc3)CC2)c1,–,inactive: -15.1%
Cc1ccc(/C=C2/NC(=O)N(Cc3ccccc3)C2=O)s1,"inconclusive: 89.1 µM [inhibitor, single point]",–
COc1ccc(C)cc1Nc1n[n+](-c2ccccc2)c(-c2ccc(C(=O)O)cc2)s1,active: 39.8 µM,–
CCOC(=O)c1c(-c2ccc(C)o2)csc1NC(=O)CN1CCN(CC)CC1,"inconclusive: 89.1 µM [inhibitor, single point]",–
